Data taken from US20110104152A1 (Genentech, published 2011).

How the values were obtained:
[1] = target: human FGFR1c polypeptide expressed in transfected rat L6 myoblasts (human, UniProt P11362 22-822); test: cell-based or functional assay
[2] = target: human FGFR4 polypeptide expressed in transfected rat L6 myoblasts (human, UniProt P22455 22-802); test: cell-based or functional assay
UniProt P22455, sequence (P22455 22-802): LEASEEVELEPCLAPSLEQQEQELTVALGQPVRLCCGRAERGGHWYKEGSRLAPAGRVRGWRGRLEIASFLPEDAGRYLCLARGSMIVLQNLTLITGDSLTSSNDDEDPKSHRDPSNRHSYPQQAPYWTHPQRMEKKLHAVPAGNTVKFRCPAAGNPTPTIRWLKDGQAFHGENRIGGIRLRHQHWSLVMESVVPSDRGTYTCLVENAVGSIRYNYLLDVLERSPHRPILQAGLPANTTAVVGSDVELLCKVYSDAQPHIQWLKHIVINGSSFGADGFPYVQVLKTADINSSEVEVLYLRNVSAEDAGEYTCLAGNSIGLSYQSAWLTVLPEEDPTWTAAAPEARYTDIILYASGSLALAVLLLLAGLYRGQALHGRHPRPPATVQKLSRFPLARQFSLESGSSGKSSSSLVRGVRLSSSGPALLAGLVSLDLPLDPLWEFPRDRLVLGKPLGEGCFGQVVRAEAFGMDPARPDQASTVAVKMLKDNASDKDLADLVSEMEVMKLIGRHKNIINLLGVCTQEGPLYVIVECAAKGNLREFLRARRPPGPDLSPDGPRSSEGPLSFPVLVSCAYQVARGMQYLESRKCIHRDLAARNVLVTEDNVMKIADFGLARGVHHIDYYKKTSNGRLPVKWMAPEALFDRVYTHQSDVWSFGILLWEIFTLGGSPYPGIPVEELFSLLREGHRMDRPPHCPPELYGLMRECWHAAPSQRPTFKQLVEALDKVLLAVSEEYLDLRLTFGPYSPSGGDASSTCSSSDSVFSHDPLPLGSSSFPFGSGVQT

UniProt P11362, sequence (P11362 22-822): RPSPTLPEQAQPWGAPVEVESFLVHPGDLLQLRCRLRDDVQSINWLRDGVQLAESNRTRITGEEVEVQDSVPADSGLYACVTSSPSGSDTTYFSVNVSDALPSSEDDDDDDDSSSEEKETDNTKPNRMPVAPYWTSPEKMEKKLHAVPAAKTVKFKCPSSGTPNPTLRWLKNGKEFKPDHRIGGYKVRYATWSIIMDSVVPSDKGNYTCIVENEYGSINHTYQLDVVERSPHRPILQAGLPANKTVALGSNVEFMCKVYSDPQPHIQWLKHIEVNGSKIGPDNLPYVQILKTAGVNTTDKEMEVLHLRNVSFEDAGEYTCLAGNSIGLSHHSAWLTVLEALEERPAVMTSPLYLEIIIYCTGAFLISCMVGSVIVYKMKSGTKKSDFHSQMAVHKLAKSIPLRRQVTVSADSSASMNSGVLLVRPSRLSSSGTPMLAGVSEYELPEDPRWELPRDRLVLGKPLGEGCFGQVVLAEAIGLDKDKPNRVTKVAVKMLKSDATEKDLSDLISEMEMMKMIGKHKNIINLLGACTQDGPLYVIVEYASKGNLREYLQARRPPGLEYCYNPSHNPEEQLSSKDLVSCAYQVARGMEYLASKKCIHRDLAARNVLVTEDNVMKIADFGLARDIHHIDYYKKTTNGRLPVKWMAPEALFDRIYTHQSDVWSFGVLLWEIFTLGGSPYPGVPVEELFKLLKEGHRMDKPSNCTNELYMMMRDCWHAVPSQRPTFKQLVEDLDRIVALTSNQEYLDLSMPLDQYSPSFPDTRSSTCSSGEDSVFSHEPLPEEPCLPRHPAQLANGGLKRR

B1: native human FGF19-Flag polypeptide (ligand)
chain: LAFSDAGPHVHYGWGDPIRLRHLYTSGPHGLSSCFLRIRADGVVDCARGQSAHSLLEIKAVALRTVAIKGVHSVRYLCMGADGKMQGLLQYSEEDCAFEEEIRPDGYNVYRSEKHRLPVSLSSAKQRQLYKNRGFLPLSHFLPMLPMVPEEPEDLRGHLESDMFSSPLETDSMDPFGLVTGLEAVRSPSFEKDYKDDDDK
For B1, the “EC50 of dose-dependent activation of luciferase (GAL4-Elk1 reporter), L6 cells with KLB and FGFR1c” value [1] was 0.0343 µg/mL and the “EC50 of dose-dependent activation of luciferase (GAL4-Elk1 reporter), L6 cells with FGFR4 and KLB” value [2] was 0.0026 µg/mL.
